# Assay results as given in the supplement of paper PMC8728848.
# The list shows a part of the results.
# B1: Gal 4 (Homo sapiens), Q8K419 (protein)
# chain: MAYVPAPGYQPTYNPTLPYKRPIPGGLSVGMSVYIQGMAKENMRRFHVNFAVGQDDGADVAFHFNPRFDGWDKVVFNTMQSGQWGKEEKKKSMPFQKGKHFELVFMVMPEHYKVVVNGNSFYEYGHRLPVQMVTHLQVDGDLELQSINFLGGQPAAAPYPGAMTIPAYPAGSPGYNPPQMNTLPVMTGPPVFNPRVPYVGALQGGLTVRRTIIIKGYVLPTARNFVINFKVGSSGDIALHLNPRIGDSVVRNSFMNGSWGAEERKVAYNPFGPGQFFDLSIRCGMDRFKVFANGQHLFDFSHRFQAFQMVDTLEINGDITLSYVQI
# Key:
# Assay in all cases: glycan array binding signal (z-score within array); higher = stronger binding
# Conditions in all cases: glycan notation: IUPAC condensed, linker removed
# Fuc(a1-2)Gal = biological target: Fuc(a1-2)Gal
# How it was run: (§1)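 From the Consortium for Functional Glycomics database, 3228 arrays were curated, keeping only those whose protein sequence was available. Binding is given as a within-array Z-score averaged across arrays sharing a protein sequence and across linkers. Negative Z-scores can be read as non-binding.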
# Fuc(a1-2)Gal(b1-3)GalNAc = biological target: Fuc(a1-2)Gal(b1-3)GalNAc
# How it was run: as §1
# [1] = biological target: Fuc(a1-2)Gal(b1-3)GalNAc(a1-3)[Fuc(a1-2)]Gal(b1-4)Glc
# How it was run: as §1
# [2] = biological target: Fuc(a1-2)Gal(b1-3)GalNAc(a1-3)[Fuc(a1-2)]Gal(b1-4)GlcNAc
# How it was run: as §1
# [3] = biological target: Fuc(a1-2)Gal(b1-3)GalNAc(b1-3)Gal
# How it was run: as §1
# [4] = biological target: Fuc(a1-2)Gal(b1-3)GalNAc(b1-3)Gal(a1-4)Gal(b1-4)Glc
# How it was run: as §1
# [5] = biological target: Fuc(a1-2)Gal(b1-3)GalNAc(b1-4)[Neu5Ac(a2-3)]Gal(b1-4)Glc
# How it was run: as §1
# Fuc(a1-2)Gal(b1-3)GlcNAc = biological target: Fuc(a1-2)Gal(b1-3)GlcNAc
# How it was run: as §1
# [6] = biological target: Fuc(a1-2)Gal(b1-3)GlcNAc(b1-2)Man(a1-3)[Fuc(a1-2)Gal(b1-3)GlcNAc(b1-2)Man(a1-6)]Man(b1-4)GlcNAc(b1-4)GlcNAc
# How it was run: as §1
# [7] = biological target: Fuc(a1-2)Gal(b1-3)GlcNAc(b1-2)Man(a1-3)[Fuc(a1-2)Gal(b1-3)GlcNAc(b1-2)Man(a1-6)]Man(b1-4)GlcNAc(b1-4)[Fuc(a1-6)]GlcNAc
# How it was run: as §1
# [8] = biological target: Fuc(a1-2)Gal(b1-3)GlcNAc(b1-3)Gal(b1-4)Glc
# How it was run: as §1
# [9] = biological target: Fuc(a1-2)Gal(b1-3)GlcNAc(b1-3)GalNAc
# How it was run: as §1
# [10] = biological target: Fuc(a1-2)Gal(b1-3)GlcNAc(b1-3)[Fuc(a1-2)Gal(b1-3)GlcNAc(b1-6)]GalNAc
# How it was run: as §1
# [11] = biological target: Fuc(a1-2)Gal(b1-3)GlcNAc(b1-3)[Fuc(a1-3)[Gal(b1-4)]GlcNAc(b1-6)]Gal(b1-4)Glc
# How it was run: as §1
# [12] = biological target: Fuc(a1-2)Gal(b1-3)GlcNAc(b1-3)[Gal(b1-4)GlcNAc(b1-6)]Gal(b1-4)Glc
# How it was run: as §1
# [13] = biological target: Fuc(a1-2)Gal(b1-3)GlcNAc(b1-3)[Neu5Ac(a2-6)Gal(b1-4)GlcNAc(b1-6)]Gal(b1-4)Glc
# How it was run: as §1
# [14] = biological target: Fuc(a1-2)Gal(b1-3)GlcNAc6S
# How it was run: as §1
# [15] = biological target: Fuc(a1-2)Gal(b1-3)[Fuc(a1-4)]GlcNAc
# How it was run: as §1
# [16] = biological target: Fuc(a1-2)Gal(b1-3)[Fuc(a1-4)]GlcNAc(b1-2)Man(a1-3)[Fuc(a1-2)Gal(b1-3)[Fuc(a1-4)]GlcNAc(b1-2)Man(a1-6)]Man(b1-4)GlcNAc(b1-4)GlcNAc
# How it was run: as §1
# [17] = biological target: Fuc(a1-2)Gal(b1-3)[Fuc(a1-4)]GlcNAc(b1-2)Man(a1-6)[Fuc(a1-2)Gal(b1-3)[Fuc(a1-4)]GlcNAc(b1-2)Man(a1-3)]Man(b1-4)GlcNAc(b1-4)[Fuc(a1-6)]GlcNAc
# How it was run: as §1
# [18] = biological target: Fuc(a1-2)Gal(b1-3)[Fuc(a1-4)]GlcNAc(b1-3)[Fuc(a1-3)[Gal(b1-4)]GlcNAc(b1-6)]Gal(b1-4)Glc
# How it was run: as §1
# [19] = biological target: Fuc(a1-2)Gal(b1-3)[Fuc(a1-4)]GlcNAc(b1-3)[Gal(b1-4)GlcNAc(b1-6)]Gal(b1-4)Glc
# How it was run: as §1
# Fuc(a1-2)Gal(b1-4)Glc = biological target: Fuc(a1-2)Gal(b1-4)Glc
# How it was run: as §1
# Fuc(a1-2)Gal(b1-4)Glc6S = biological target: Fuc(a1-2)Gal(b1-4)Glc6S
# How it was run: as §1
# Fuc(a1-2)Gal(b1-4)GlcNAc = biological target: Fuc(a1-2)Gal(b1-4)GlcNAc
# How it was run: as §1
# [20] = biological target: Fuc(a1-2)Gal(b1-4)GlcNAc(b1-2)Man
# How it was run: as §1
# [21] = biological target: Fuc(a1-2)Gal(b1-4)GlcNAc(b1-2)Man(a1-3)[Fuc(a1-2)Gal(b1-4)GlcNAc(b1-2)Man(a1-6)]Man(b1-4)GlcNAc(b1-4)GlcNAc
# How it was run: as §1
# [22] = biological target: Fuc(a1-2)Gal(b1-4)GlcNAc(b1-2)Man(a1-3)[Fuc(a1-2)Gal(b1-4)GlcNAc(b1-2)Man(a1-6)]Man(b1-4)GlcNAc(b1-4)[Fuc(a1-6)]GlcNAc
# How it was run: as §1
# [23] = biological target: Fuc(a1-2)Gal(b1-4)GlcNAc(b1-2)[Fuc(a1-2)Gal(b1-4)GlcNAc(b1-4)]Man(a1-3)[Fuc(a1-2)Gal(b1-4)GlcNAc(b1-2)Man(a1-6)]Man(b1-4)GlcNAc(b1-4)GlcNAc
# How it was run: as §1
# [24] = biological target: Fuc(a1-2)Gal(b1-4)GlcNAc(b1-3)Gal(b1-4)GlcNAc
# How it was run: as §1
binder,measurement,setting,value
B1,glycan array binding signal (z-score),Fuc(a1-2)Gal,-0.2
same,glycan array binding signal (z-score),Fuc(a1-2)Gal(b1-3)GalNAc,-0.181
same,glycan array binding signal (z-score),[1],0.743
same,glycan array binding signal (z-score),[2],0.009
same,glycan array binding signal (z-score),[3],-0.205
same,glycan array binding signal (z-score),[4],-0.201
same,glycan array binding signal (z-score),[5],-0.203
same,glycan array binding signal (z-score),Fuc(a1-2)Gal(b1-3)GlcNAc,0.279
same,glycan array binding signal (z-score),[6],0.028
same,glycan array binding signal (z-score),[7],-0.154
same,glycan array binding signal (z-score),[8],1.28
same,glycan array binding signal (z-score),[9],-0.021
same,glycan array binding signal (z-score),[10],-0.088
same,glycan array binding signal (z-score),[11],-0.103
same,glycan array binding signal (z-score),[12],0.061
same,glycan array binding signal (z-score),[13],-0.035
same,glycan array binding signal (z-score),[14],1.3
same,glycan array binding signal (z-score),[15],-0.201
same,glycan array binding signal (z-score),[16],-0.173
same,glycan array binding signal (z-score),[17],-0.201
same,glycan array binding signal (z-score),[18],-0.197
same,glycan array binding signal (z-score),[19],-0.182
same,glycan array binding signal (z-score),Fuc(a1-2)Gal(b1-4)Glc,0.174
same,glycan array binding signal (z-score),Fuc(a1-2)Gal(b1-4)Glc6S,0.599
same,glycan array binding signal (z-score),Fuc(a1-2)Gal(b1-4)GlcNAc,-0.168
same,glycan array binding signal (z-score),[20],-0.211
same,glycan array binding signal (z-score),[21],-0.143
same,glycan array binding signal (z-score),[22],-0.202
same,glycan array binding signal (z-score),[23],-0.243
same,glycan array binding signal (z-score),[24],-0.032
